Data: the supplement of paper PMC10126150
Sequences with one replicate were seen in a single cluster, so their values are uncertain.

Tested on: ATP
Assay: switch fluorescence ratio, 500 uM ATP over buffer (Cy3 cluster intensity, sum of 5 cycles each) (fold (ratio)); higher = stronger signal-on switching upon ATP binding; sequences stand for … in TCGTCGGCAGCGTCAGATGTGTATAAGAGACAGTTTTTTTTTTTTTTTTTTTTTTTTT…TC
Conditions: aptamer strand: ATP DNA aptamer (quencher-CACCTGGGGGAGTATTGCGGAGGAAGG + anchor), 100 nM annealed; ATP concentration: 500 uM; one replicate
Procedure, shortened: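 Exposure to 500 uM ATP lasted 15 min at 22 °C before imaging, and a selection-buffer image was taken beforehand, for Cy3-labelled switching-strand clusters on a modified Illumina MiSeq flow-cell annealed to 100 nM quencher-labelled ATP aptamer. Five buffer/ATP cycles were run with NaOH stripping and re-annealing between them. The fluorescence ratio per cluster is summed target-cycle over summed buffer-cycle Cy3 intensity, averaged per switch-domain sequence. Clusters outside 100-1000 RFU were excluded.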

Sequence | switch fluorescence ratio
CTAGAATACG | 1.06
GCATACTTGC | 0.998
AGTGCCTTC | 1.11
AGTTGACGGC | 0.985
CGATAGTCAG | 0.978
TTACACTAGA | 1.04
TGGCGTGAGG | 0.97
ACCTGAACAT | 1.04
ATGTGTTTTG | 1.1
GGGGGGCCAC | 1
AGATCTGGTT | 0.992
CGTGATGTGG | 1.03
TATAATGTCT | 0.976
TTCATTAAG | 0.97
CACCGCTCAT | 2.25
CAATAATTCG | 1
TGGTAACTAT | 1.49
CGAAGCGGGA | 1.38
CGGCGTGCTT | 0.996
GAGTAGTCAA | 1.01
TACCAAAAGC | 1.03
GTCATGGGGC | 1.03
CCGTTACTGG | 1.06
AAAGACTAGT | 0.984
GTAATCGAAT | 0.996
TGGCTGCGAA | 1.04

Sequence | switch fluorescence ratio
GCCATTTATC | 1.01
TAGGGTGGAC | 0.985
GTGAGGACTG | 0.867
AATCGCGTCT | 1.13
TACAAGGACT | 1.03
GAAGTTTGAA | 0.988
GACTTGACGG | 1.02
TACTTCGTGA | 1.63
GCGTTCGTTG | 0.983
CCATACAATT | 0.997
TAGGGTCGCC | 1.02
CATGGGCT | 1.01
CGTACCCTTC | 1.07
GGGTTTATTA | 0.941
TACTGAAATG | 1.01
ACTACCGGTT | 1.05
CCAGCTGTCG | 1.06
AAGCAGAAAC | 1.22
CAGCGCTCT | 1.03
GGTATTAGT | 0.989
TCTGCCTGGT | 1.03
CAACACCGGG | 1.18
GACATCGCCC | 1.07
TTTGCTGTGA | 0.992
ACACAATTTA | 1.06
CAGACATGCT | 1.04

Sequence | switch fluorescence ratio
CGTTGAAAAA | 0.999
GCTGCCGGAT | 1.11
CATCCAATCT | 1.1
ATGCAATCTG | 1.14
AGTGAACGGT | 1.04
GCCTAAGTAG | 0.995
GTCGAAACCC | 1.04
GTTTTTCAGC | 1.01
GCGGGGTCA | 1.03
TGCTAGAAAC | 0.969
GGGATCGCCT | 0.992
GTTTTCTAAT | 0.969
ACATATGGGG | 0.98
GGCGATTTGC | 1.01
GACTAGGAG | 1.06
AAGTGCAAC | 0.996
TGCGGATGTG | 0.992
CAAACGAATT | 0.987
GGCCATAGGA | 0.994
TCTTTAAGG | 0.965
TCAGCCTTCT | 0.939
CGACAGTCGG | 1.05
CTAGCACAAA | 0.971
TAAGGGGTCT | 0.98
CGTCTAGTTA | 1.01
GATAACCTCG | 1.03

Sequence | switch fluorescence ratio
AACATCATCC | 1.09
CAGAGACGA | 1
GACTGTCGGT | 0.999
ATTCAA | 0.992
ACCCCCAGAG | 6.13
CTAGAGATGG | 1.02
CGAGTACAGT | 0.985
TGGGTTCCGG | 0.937
TACAAAATAC | 1.65
TGCTTGTAGC | 1.05
CTCCTCTAGC | 2.09
TAATTCTTCT | 1.03
GCTGGGACTG | 1.03
GCTGGAAGTG | 0.998
GTCGGTTAGT | 0.998
CCGCTAGGAG | 1
TCGCACCTTG | 1.04
GCATCACTTA | 1.09
TCGAAAAGAT | 0.978
TCGTGGATCT | 0.971
AGGAAGTTAT | 0.999
GAGGGTTAGA | 1
GTATGCTACC | 1.22
GCCCGAGCCA | 1.08
GCACAGCCGG | 1.01
GGGTGTTGCG | 0.981

Sequence | switch fluorescence ratio
TGGCCGGAAA | 1.07
ATGATGCAGC | 1.04
CGATTTTTGG | 1
GTCCAGTCGA | 0.988
ATAGAGGGCT | 0.985
GGAGAAATAC | 4.16
GTGGTCGTCG | 1.03
ATGAGCGAGT | 0.956
TCTGTAGGT | 0.975
ACTACGTTCC | 2.17
TTTTGTCAGT | 0.962
TCGGTTCGGC | 0.96
TATCCCCTAT | 1.02
TCCCCTTACT | 1.43
ACTCCAGTTA | 1.14
AGCTCGATAT | 1.01
TATTTTCGCT | 0.969
CGGTTCTAAG | 1
AATCGTGATA | 1.01
CCAGTTAT | 1.01
GGCGTAGAC | 1.01
ACCGTGACGG | 0.98
CTGGTACAAT | 1.06
CCAACATACC | 1.34
CAACGCTAAA | 1.58
CACCTGTCTG | 0.993

Sequence | switch fluorescence ratio
CCTGCAAAAG | 2.84
AGCGTTTGCT | 0.962
TTGCCTGTGC | 1.04
CCCATATCGC | 1.09
CGTTACGACC | 1.5
ACGGTAGGCT | 1.03
TTCCGCGTCT | 1.09
TGCTTAGAGC | 0.983
AGTCCGGAC | 1.02
AATAGTTTGG | 1
TGAAAATGCC | 0.947
CAACGTTGGA | 0.998
GGGGAGACAT | 0.99
GCACCGACGT | 1.57
AGATTAGTCG | 0.93
GTGCATTTGC | 0.975
GAGTGTATGT | 0.983
AATATCCTTG | 1.01
CTTCGAGGAC | 1.03
AAGTAGAGGG | 0.942
GGCTCCTATT | 0.978
TATCGCCCGG | 1.03
TAATGCATAA | 1.02
